The whole screen tested about 150,000 compounds, of which about 540 (0.36%) showed an effect of 50% or more. Some of the results follow.
System: Plasmodium falciparum
Assay: Primary screen in NF54 nanoGlo assay, in single point, at 2uM, 72h; a lower Z score goes with more inhibition
Assay type: functional, Erythrocyte
Details: timepoint 72 hour

SMILES	% Inhibition	Z score
CC(c1nc(C2CC2)no1)N1CCN2C(=O)NCC2C1 (stereo not given)	-1%	0.19
CC(C)c1nc([C@@H]2CCCCCN2C(=O)c2ccccn2)no1	-14%	1.2
O=C(Cc1ccccc1)Nc1ccc(C2OC(=O)N(Cc3ccccc3)C2C(=O)NCc2ccc(F)cc2)cc1 (stereo not given)	-18%	1.77
CN(C)C(=O)c1ccnc(NC(=O)c2ccnn2CC2CCC2)c1	-8%	1.25
CCn1ncnc1CN1C[C@@H]2NC(=O)CN(CCOC)C(=O)c3cncc(c3)Oc3cccc(c3)CO[C@H]2C1	-26%	3.37
CCOc1ccc(-c2ccc(OCCNC(=O)c3ccc(S(=O)(=O)N4CCCC4)cc3)nn2)cc1	-9%	1.66
O=S(=O)(CCC(F)(F)F)N[C@H]1CCn2nccc2C1	-6%	1
COc1ccccc1CC(=O)Nc1nncn1C	-3%	0.38
CC[C@H](NC1CCN(Cc2ccco2)CC1)c1cc(C)ccn1	-9%	1.94
CCOc1cccc(CC(=O)NCc2ccc3c(c2)CCN3C(=O)c2ccc(Cl)cc2)c1OCC	-12%	2.18
Cc1c(Cl)cccc1OCC(=O)N1C[C@@H]2CS(=O)(=O)C[C@@H]2C1	7%	-1.32
O=C(NCc1ccc2c(c1)CCN2C(=O)c1ccccc1)c1ccc(F)cc1	-9%	1.67
Cc1nc(N(C)C2CCCCC2)ncc1[C@H](C)NC(=O)Cn1cnnn1	1%	-0.26
CC(C)C[C@H](C)n1nccc1NC(=O)NCCC(=O)N(C)C	-6%	0.51
CCN(CC)c1ccc(C(=O)N2CCN(c3nc(-c4ccc(Cl)cc4)no3)CC2)cc1	-15%	2.06
CC[C@@H](c1nc(Cc2cccc(Cl)c2)nn1CCO)n1cccn1	-6%	0.99
C=CCn1c(=O)c2sc(N(CC)CC)nc2n(CC(=O)NCc2ccc3c(c2)OCO3)c1=O	-22%	1.96
Cc1ccc2ncc(-c3noc([C@@H]4CCCN4C4CCCC4)n3)n2c1	-8%	1.35
COc1ccc(CCNCc2c[nH]nc2-c2cccnc2)c(Cl)c1	11%	-1.64
Cc1nn(C)cc1CN1CCC(=O)N(CC2CCCCC2)CC1	-4%	0.68
Cc1cc(C(=O)N(C2CCCCC2)[C@H]2CCS(=O)(=O)C2)ccn1	-6%	0.87
COc1ccc(CNC(=O)CC(F)(F)F)cc1	4%	-0.59

SMILES	% Inhibition	Z score
COc1ccc(O)c(C(=O)N2CCCC3(CCN(C)CC3)CC2)c1	3%	-0.45
Cc1cccc(C(=O)N2CCOc3ccc(CN4CCOCC4)cc3C2)c1	-3%	0.62
Cc1nn(C)cc1C(=O)NC1(C(=O)N(C)C)CCCCC1	-15%	2.35
Cc1noc2ncnc(N3CCC(Cc4nncn4C)CC3)c12	-7%	1.3
NCc1nc(CN2C(=O)c3ccccc3C2=O)no1	-9%	0.99
Cn1ncnc1NC(=O)c1cncc(Br)c1	10%	-1.15
CN(CC(F)(F)F)C(=O)CNc1ncnc2ccc(F)cc12	5%	-0.74
NC(=O)C1CCN(C(=O)[C@@H]2CC(c3ccc(Cl)c(Cl)c3)=NO2)CC1	-10%	1.39
Cc1cc(OCc2nc(-c3nonc3N)no2)cc(C)c1Cl	-2%	0.25
Cc1n[nH]c(C)c1CNC(=O)C(C)(C)NC(=O)C(F)(F)F	-7%	0.84
CCCn1ccnc1CN1CC[C@](C)(O)[C@H](Cc2ccccc2)C1	-8%	1
COCCC(=O)Nc1ccc(OC)c2nonc12	5%	-0.86
CC12CN(CCS(C)(=O)=O)CC1(C)CN(Cc1ccccc1)C2 (stereo not given)	-9%	1.25
Cn1cncc1[C@@H](O)C(=O)N1CCN(C(=O)Cc2c[nH]c3ccccc23)CC1	-4%	0.4
COc1ccc(NC(=O)Cn2c(C)cc3nc4n(c(=O)c32)CCCCC4)cc1	-3%	0.39
Cc1cccc(OCC(=O)N2C[C@@H]3C[C@H](N(C)C)CN3C(=O)[C@@H]2CC(C)C)c1	-8%	1.02
O=C1CN(C(=O)c2ccc(CS(=O)(=O)c3ccccc3)o2)c2ccccc2N1	-8%	1.04
CCc1nc(NCc2cccnc2N(C)C)ncc1C	-11%	1.52
O=C(NCc1ncccc1O)[C@H]1C[C@@H]1c1ccccc1	-14%	1.78
CN(C(=O)CN1CCN([C@H]2CCOC2=O)CC1)C1CCCCC1	-11%	1.09
Cc1cc(C(=O)CN2C(=O)NC3(CCCCCCC3)C2=O)c(C)n1CCc1ccc(F)cc1	4%	-0.5
C[C@@H](c1cccs1)N(C)Cc1ccsc1	-17%	1.85

SMILES	% Inhibition	Z score
O=C(COc1ccc(Cl)cc1C1CCCCC1)N1CCC[C@H]1c1ccncc1	-4%	0.43
CC(=O)N[C@H]1C[C@@H](c2ccc(Cn3cccn3)cc2)O[C@@H](C(C)C)C1	-1%	0.17
Cc1ccc(NC(=O)c2ccccn2)nc1	-4%	0.36
O=C(NCCOc1ccc2c(c1)OCO2)Nc1ccncc1	-1%	0.15
CCC(C)NC(=O)C(C)Oc1ccc(Br)cc1 (stereo not given)	-10%	1.27
Cc1oncc1S(=O)(=O)N1CCC2(CC1)C[C@H](c1ccccc1)CN(C)C2	-4%	0.83
CCOC(=O)NC(C(=O)NC(C)c1ccccc1)C(C)C (stereo not given)	-2%	0.33
CCCCS(=O)(=O)N1CCc2[nH]cnc2C1	-1%	0.28
COc1ccc(NC(=O)CCCOc2ccc(C(C)=O)cc2)cc1S(=O)(=O)N1CCCCC1	-5%	0.56
Cc1noc(CO[C@H]2CCCN(C(=O)CCc3c(C)noc3C)C2)n1	-3%	0.36
Cc1cccc(C[C@@]2(C)CCCN2C(=O)c2cc(O)n(C)n2)c1	4%	-0.63
Cc1cccc(NC(=O)c2ccc3nn(CC(=O)Nc4ccc(C)c(Cl)c4)c(=O)n3c2)c1	-15%	1.3
O=S(=O)(NCCCN1CCCC1)c1ccc(Cl)cc1	-15%	1.75
C#Cc1cccc(N(C)S(=O)(=O)c2ccc(N(C)C(C)=O)cc2)c1	-2%	0.4
O=C(c1ccc2nsnc2c1)N1CCN(C[C@H](O)C2CC2)CC1	-6%	0.93
COCc1cc(CNc2ccnc(C(F)(F)F)n2)n[nH]1	0%	0.03
OC1CCC(Nc2nc(NC3CCC(O)CC3)c3ccccc3n2)CC1 (stereo not given)	12%	-1.96
CC(C)(C)CCN[C@H]1CC[C@@H](CO)CC1	-6%	0.65
CNc1snc(C)c1C(=O)N1CC(C)OC(C)C1 (stereo not given)	-7%	0.65
Cc1cc([C@H](C)NC(=O)CCOC2CCOCC2)c(C)s1	4%	-0.53
CCn1cnnc1NC(=O)c1sccc1C1CC1	-12%	1.23
COc1ccc(CC(=O)N2CC[C@H]3CN(S(C)(=O)=O)C[C@@]3(CO)C2)cc1	4%	-0.73

SMILES	% Inhibition	Z score
Nc1nc(CCC(=O)NCc2cc(F)c(F)cc2F)cs1	0%	-0.06
CC(C)N(Cc1cnn(C)c1)C(=O)COC[C@H]1CCCO1	-9%	1.63
Nc1nc(CCCNCc2cnc3c(-c4ccccc4)cnn3c2)cs1	0%	-0.06
O=C(Cn1nnc2ccccc21)Nc1ccc2c(c1)CCC2	6%	-0.72
Cc1sc(C(=O)O)cc1NC(=O)C[C@H]1CCCCO1	0%	-0.05
Cc1nnsc1CN1CCCN(S(=O)(=O)N2CCCC2)CC1	-5%	0.84
C[C@@H]1CN(C(=O)C2CC2c2ccccc2OC(F)(F)F)CCN1C(=O)OC(C)(C)C (stereo not given in full)	-10%	0.94
COc1ccc(-n2nc(C)c3c2NC(=O)C[C@@H]3c2ccccc2F)nn1	-11%	1.38
COCc1ccc(C(=O)N2CCC[C@@H]2CC(=O)c2ccccc2)cc1	-1%	0.07
Cc1cccc(CNC(=O)[C@H]2CCN(c3cn[nH]c(=O)c3)C2)c1	-12%	1.58
Cc1ccc([C@@H]2c3nc[nH]c3CCN2CC(C)(C)CN(C)C)cc1	-14%	1.2
CCCCN(C)c1ncccc1S(N)(=O)=O	-6%	0.76
CCNC(=O)N1CC[C@H](NC(=O)c2oc3ccccc3c2CC)C1	-14%	2.71
COc1ccc(N2C(=O)[C@H](CC(=O)N3CCc4ccccc4C3)N=C2O)cc1	-7%	0.94
C=CCOCCCC(=O)N1CC2(CC2)c2ccccc21	-4%	0.72
O=C1OCCN1CCN(C[C@H](O)c1ccccc1)C1CC1	-12%	1.03
CC(C)NC(=O)CN1CN(c2ccccc2)C2(CCN(S(=O)(=O)c3cccc(C(F)(F)F)c3)CC2)C1=O	-12%	1.42
O=C(CCn1cccn1)NS(=O)(=O)Cc1ccc2c(c1)COC2	6%	-1.01
C[C@]1(CO)CN(Cc2ccncc2Cl)c2ccccc2O1	-14%	1.74
